# Measured values as given in patent US6030980A, “Agent for the treatment of infections” (priority 1994, dated 2000).
# Experiments:
# cytomegalovirus (CMV) = experiment: Survival of thermally injured mice infected with cytomegalovirus (Experimental Example 7); settings: 10 μg/kg/day oral
# Candida albicans = experiment: Resistance of thermally injured mice to Candida albicans infection (Experimental Example 9); settings: 1 μg/kg intraperitoneal; Candida albicans 2×10^4 cells/mouse; FIG. 4
smiles,measurement,setting,value
COCC12CN(C)C3C4C(OC)C1C3(C(OC)CC2O)C1CC2(O)C(OC)C(O)C4(O)C1C2OC(=O)c1ccccc1 (centres unmarked) [benzoylmesaconine],protection against opportunistic infection of the thermally injured mice to CMV,cytomegalovirus (CMV),efficiently protected
same,resistance of the thermally injured mice to the fungal infection,Candida albicans,completely recovered
